# The supplement of paper PMC10126150
# Sequences with one replicate were seen in a single cluster, so their values are uncertain.
# System: ATP
# Experiment: switch fluorescence ratio, 500 uM ATP over buffer (Cy3 cluster intensity, sum of 5 cycles each) (fold (ratio)); higher = stronger signal-on switching upon ATP binding; sequences stand for … in TCGTCGGCAGCGTCAGATGTGTATAAGAGACAGTTTTTTTTTTTTTTTTTTTTTTTTT…TC
# Details: aptamer strand: ATP DNA aptamer (quencher-CACCTGGGGGAGTATTGCGGAGGAAGG + anchor), 100 nM annealed; ATP concentration: 500 uM; one replicate
# Method in brief: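 The fluorescence ratio divides summed target-cycle Cy3 intensity by summed buffer-cycle Cy3 intensity for each cluster and is averaged per switch-domain sequence. Cy3-labelled switching-strand clusters on a modified Illumina MiSeq flow-cell were annealed to 100 nM quencher-labelled ATP aptamer, then imaged in selection buffer and again after 15 min with 500 uM ATP at 22 °C. Five such cycles were run, with NaOH stripping and re-annealing between them, and clusters outside 100-1000 RFU were excluded.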
# 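Note: ATP exposure 15 min at 22 °C before imaging.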
row,Sequence,switch fluorescence ratio
1,GAGGGACGGA,0.997
2,GTAGTGCTCG,1.01
3,GGCTGCCGAA,0.956
4,CTGCGGTATA,1.06
5,GCTAAAGCAT,1
6,TAACTCTTCC,2.97
7,GCACTCAGAG,1.02
8,CCAGACCCGT,1.07
9,ATGTAGAACG,0.99
10,TCATACATAA,1.07
11,CAGCATCGTG,0.976
12,ATCTTAGTTC,0.964
13,TCGTAGGT,1.23
14,CTCGATACTT,1.08
15,TGTTATAGT,1.02
16,CGCGGTAAAC,1.57
17,GAGAGCCCGT,1.01
18,TTCGTATTCT,1.02
19,CCATGTTCGT,1
20,TTCATGACCA,1.07
21,GGGGCCGGGC,0.962
22,GTGGGCCCCG,1.03
23,AATAACGGCT,1.06
24,GCTTTTGTAA,0.982
25,CGAGTAGCGA,0.973
26,TCTAATGACT,0.993

row,Sequence,switch fluorescence ratio
1,TCCACCCATA,1.32
2,GACGCATGCC,2.62
3,GCAAGTGGAC,1.08
4,CTGACTGAAG,0.984
5,CATACTCTAG,1.07
6,ACTAAGTAGC,1.03
7,GGTTAGACGT,0.986
8,CCACATTTGA,0.989
9,TTCAAGCAGT,1.62
10,ATCGCTCGGG,1.05
11,GAGGCCTAGT,0.975
12,AGTACTTTTA,1.04
13,TACAGAAT,1
14,CTAACGTCCT,0.996
15,GTGAAAAGCT,1.04
16,GGAGGGATTT,1
17,ATCTGGCCGG,0.968
18,CTGGGAGAGA,1
19,AAAAAGCCGG,0.999
20,ACAAATTAGT,0.978
21,TGTTAACCGG,0.991
22,CGTTTCGTTA,0.972
23,ACGTTTCGTA,0.986
24,ATTACTTGGA,0.949
25,CAGTAACGCG,0.885
26,CGCCCGTATT,1.02

row,Sequence,switch fluorescence ratio
1,CAACAGACAG,1.03
2,TATCCAAGTG,1.05
3,CTTGAACGCG,1.02
4,TCAATATGGC,1.02
5,CTCCTAAGCT,1.13
6,CCTACTGAAG,1.06
7,TGCTGCTAAT,1.46
8,ATCTACGGGC,1.07
9,AAGTCGGGTC,0.948
10,TTCCTTTAAT,0.983
11,TGATCCGGCG,0.964
12,CTGGGGGCTG,0.948
13,AGTCGGTTGG,1.03
14,CATAGATCAT,0.998
15,TGTCTTGCCC,1.02
16,CGGACATGTC,0.989
17,CGTAGCCCTG,1.03
18,CTGATACTT,1.13
19,ACGTTGAGTC,1.02
20,CCGTAACTGA,1.31
21,ACGTTGACGC,1.09
22,ATTCTAGCTT,0.994
23,TCACTAATGG,0.987
24,CGGCCTAACA,0.979
25,ATCGGTTTAC,0.989
26,ATGAATATGA,0.975

row,Sequence,switch fluorescence ratio
1,ACGAGGTGCT,1.06
2,ACTTTTT,0.998
3,TTAGCTCGTG,0.982
4,CAATATTGGT,1.03
5,TAGGGGTGT,1.33
6,TATACTTTTG,0.947
7,TCGTCATCA,1
8,GGTCTTGTAA,0.967
9,AGCCTGCTCG,0.983
10,TATGTATAGT,0.985
11,AAACCCACTC,1.29
12,GTGTGCGGTA,1.01
13,CCGAATGGAG,0.994
14,ACCATGGAG,1.02
15,TCGGAAGGTC,1.05
16,ACTACATAG,1.04
17,CTCTTATGAT,0.975
18,TATTAAGCCC,1
19,TTCGCGAACA,1.04
20,ATGTTTTGCC,1.01
21,CGACTGCTGG,1.05
22,TTTTGTCAT,1.01
23,CGTGACGCTC,1.04
24,GAAAACTAGA,0.911
25,AGGCCAGCAT,1.01
26,TATCGGTATA,1

row,Sequence,switch fluorescence ratio
1,GGATATTGTA,0.989
2,GGGGCAGATT,1.04
3,CTTCTATAAG,0.99
4,GTGGCGACGT,0.982
5,CACGTTACGA,1.56
6,TACGCCAAAT,1.16
7,GTAAGGTT,0.993
8,TGCATCTTTG,1.01
9,GGATCCCCAC,1.23
10,ACCGTGTAGC,1.06
11,GGGTTGGAGA,0.996
12,CATGGCTTGA,0.967
13,TGTCTGTATG,1.03
14,TTTACTCCGG,1.57
15,AAGGATAGCA,0.999
16,GGGCTATCTG,1.01
17,ACGCACGGTA,1.49
18,CTGTGCGGCC,1.05
19,ACTCCCTGTT,1.28
20,GACGTGCGCC,1.31
21,CTAACTACGG,1.06
22,GCGGATTCGT,0.959
23,ATAGGCATTA,0.983
24,TGACCTGCCG,0.966
25,CTCGCTATG,1.11
26,GCACAGCGGA,1.02

row,Sequence,switch fluorescence ratio
1,TGACGTTGT,1.01
2,CGTGGTATGC,1.04
3,AAAGCTTGTG,1.02
4,TTATTGCACC,1.04
5,GTGGGTGTAT,0.988
6,ATATACGACG,0.989
7,TAGTGCCAAC,0.993
8,CTGGGGCAAA,1.28
9,CGGATTATGG,1.02
10,CTAATTGTGG,0.978
11,TAGTCGTAGC,0.982
12,TAATGTGG,0.989
13,AGGGTTCTTA,0.982
14,GGAGCATCGT,1.05
15,TCTTGGATAG,0.987
16,TTTCTATGTT,0.996
17,ACGGCGAATA,1.1
18,CTAGAATG,1.02
19,GTGTTTGGTC,0.944
20,TGGCATCGGT,1.03
21,GCGGCTTGAA,1.03
22,TCATTTGGGT,0.983
23,GGGCAATAGT,2.65
24,TACGCGAGGT,1.08
25,GGGACTGATT,0.989
26,ATAATTGGCT,1.07

row,Sequence,switch fluorescence ratio
1,CCGTCGTGTA,1.02
2,CTCGCACTC,3.74
3,TAAATCGGTC,1.02
4,CGTAAGAGTT,0.985
5,AGCAGGGAAA,1.01
6,CTGCAAAAG,1.06
7,GGCTTAATCA,0.96
8,GTCGTTATAG,1.02
9,CAAAGGGAGT,1.08
10,GAGCTCAGA,0.975
11,AACTTAGGCT,1.03
12,ATCCCGGGTT,1.02
13,TAGCAGTCTC,1.24
14,TATTGCTAC,2.1
15,CTAATTAAAT,0.98
16,TTTCTCCCGG,1.17
17,TTCTTTCACC,0.986
18,GTTGCACTGA,1.03
19,TACAAAGCGC,1.03
20,TATGGTTCCT,1.04
21,TGTTTAAGAT,1.02
22,CCGGCGGTCC,1.1
23,TCCTTAAAGT,1.01
24,GACGGGGAGT,0.97
25,AATTAGCGAT,1.07
26,AGTAGCTTGA,1.02

row,Sequence,switch fluorescence ratio
1,GTTAAATTGC,0.988
2,CGTGACGAGA,1.07
3,GAAGGATTGA,0.986
4,TGGTGGACTG,1.06
5,GTTGAACTCT,0.979
6,ATTGATGGGT,1.02
7,TGCCTGAGGG,1.01
8,GGGACGGGAC,1.09
9,TTCAACTCCG,1.17
10,AATAAAGTCA,1.04
11,TGCATCTCAT,0.978
12,TAGCGAGTTT,0.937
13,TTGTCACTGG,1.02
14,TGGGACAACC,1.02
15,CGGTCTCTGT,1.03
16,ATAGCACAAG,1.03
17,GCAGCGACGG,1.08
18,ATAGAGCAGA,1.01
19,CACCGTTTGA,1.03
